Laboratory results as given in PubChem BioAssay AID686979 (National Center for Advancing Translational Sciences (NCATS), 2013).
Hit rate of the full screen: of about 420,000 compounds, about 50,000 (12%) were called active. Inconclusive means that the source gave no clear call. Such entries were picked first, then a sample of the others. Calls come from the whole dose curve; as a rule, active = well fitted inhibition curve with a large enough effect; inconclusive = small, poorly fitted or top-dose-only effect; inactive = flat fitted curve, though single readings scatter. Potencies of inconclusive entries are left out as doubtful fits.

assay: qHTS for Inhibitors of human tyrosyl-DNA phosphodiesterase 1 (TDP1): qHTS in cells in presence of CPT; conditions: chicken DT40 Tdp1-/-;hTDP1 cells + 20 nM CPT, ATP luminescence, 48 h; activity change, negative = growth inhibition: at 46.2 µM (top of the series); note: nearly all actives have a fitted effect of over 55% in size
Procedure, shortened: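 Chicken DT40 Tdp1-/- cells stably complemented with human TDP1 were seeded at 400 cells/well in medium containing 20 nM camptothecin, exposed to pin-transferred compounds, and grown at 37 °C for at least 48 hr. Viability was read as ATP luminescence.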
% is set by controls: 0 for no effect and ±100 for the full control effect; potency is the fitted concentration of half-maximal effect; tags give direction and shape of the fitted curve.

SMILES | Potency | activity change, negative = growth inhibition
CC(C)(C)CC(C)(C)N=C1Nc2ccc(Cl)cc2NC12C[C@H]1CCC(=O)N3CC[C@@H](C2)[C@@H]13 (some centres not stated) | inconclusive [inhibitor, single point] | –
COc1ccccc1/C=C/C(=O)OCCN1C(=O)c2ccccc2C1=O | – | inactive: 6.18%
CCc1ccc(CNC(=O)C(CC)n2nc(C)c3c(C)n(-c4ccccc4)nc3c2=O)cc1 (configuration not stated) | active: 23.1 µM | –
CCOC(=O)N1CCN(c2nc(-c3ccc(Cl)cc3)cs2)CC1 | – | inactive: -26.2%
O=C(CCN1CCCCC1c1cccnc1)NCc1ccccc1 (configuration not stated) | inconclusive [inhibitor, single point] | –
Cc1ccccc1C(=O)Nc1cccc(C(=O)N/N=C/c2ccc3c(c2)OCO3)c1 | inconclusive [inhibitor, single point] | –
CCOC(=O)c1[nH]c2ccccc2c1NC(=O)c1ccccc1OC | active: 23.1 µM | –
Cc1ccc(S(=O)(=O)N(C)C)cc1NC(=O)COC(=O)Cc1ccc(Br)cc1 | inconclusive [inhibitor, single point] | –
Cc1ccc(S(=O)(=O)N[C@H](C(=O)OCC(=O)NC(=O)C2CCCCC2)C(C)C)cc1 | – | inactive: 1.64%
CN(C)c1ccc(-c2cc(N(C)Cc3ccco3)ncn2)cc1 | inconclusive [inhibitor, single point] | –
N/C(=N\OC(=O)c1cccnc1)c1ccccc1Cl | inconclusive [inhibitor, single point] | –
COc1ccc(C2Sc3ccccc3N(CCN(C)C)C(=O)C2OC(C)=O)cc1 (configuration not stated) | inconclusive [inhibitor, single point] | –
Fc1ccccc1CNC(=S)Nc1cccc(C(F)(F)F)c1 | inconclusive [inhibitor, single point] | –
COc1ccc(OC)c(C2=CC(=O)C[C@H](c3ccc4c(c3)OCO4)C2)c1 | active: 7.31 µM | –
CCc1nc2ccc(C(=O)NCc3ccccc3OC)cn2c1N(C)Cc1ccc(N(C)C)cc1 | active: 20.6 µM | –
COc1ccc(NC(=O)Cn2c(=O)oc3cc(S(=O)(=O)N4CCCC4)ccc32)c(OC)c1 | – | inconclusive: -32.6% [inhibitor]
CC(C)c1ccc(C(=O)NN2C(=O)C3CCCCC3C2=O)cc1 (configuration not stated) | – | inactive: 2.97%
COc1cc(CNCCc2ccccc2)cc(Br)c1OCC(=O)Nc1ccccc1C | inconclusive [inhibitor, single point] | –
CCN(CC)S(=O)(=O)c1ccc(=O)n(CC(=O)N2CCCc3cc(C)ccc32)c1 | – | inactive: -5.53%
CCCN1CCCc2cc(CN)ccc21 | active: 9.2 µM | –
C=CCC(c1ccccc1F)N(CCN1CCOCC1)C(=O)Nc1cccc(Cl)c1 (configuration not stated) | inconclusive [inhibitor, single point] | –
CCc1ccc(C2=NN(c3ccc(S(N)(=O)=O)cc3)C(c3ccc(F)cc3)C2)cc1 (configuration not stated) | active: 18.4 µM | –
O=C(Nc1ccc(N2CCCC2)c(Cl)c1)c1ccc([N+](=O)[O-])cc1 | – | inactive: -11.4%
Cc1nn(C(C)C(=O)NCc2cccs2)c(=O)c2nn(-c3ccccc3)c(C)c12 (configuration not stated) | inconclusive [inhibitor, single point] | –

SMILES | Potency | activity change, negative = growth inhibition
CC(C)[C@H]1COCCS(=O)(=O)N1Cc1ccccc1 | inconclusive [inhibitor, partial curve, poor fit] | –
O=[N+]([O-])/C=C/c1ccc2c(ccn2Cc2ccccc2)c1 | active: 3.26 µM | –
CCO[C@@H]1OC(C(=O)O)=C[C@H](C)[C@H]1CCCO | – | inactive: -13%
CCOC(=O)C1(CC)NC(c2ccc(OC)c(OC)c2)C2C(=O)N(c3cccc(C(C)=O)c3)C(=O)C21 (configuration not stated) | – | inactive: 10.5%
COCCCNc1ccn2nc(-c3cccc(Cl)c3)cc2n1 | inconclusive [inhibitor, single point] | –
Cn1c(SCC(=O)NCc2ccc3c(c2)OCO3)ncc(C(=O)Nc2ccc(F)cc2)c1=O | inconclusive [inhibitor, partial curve] | –
CCCCC(=O)Nc1ccccc1N1CCN(c2ccc(F)cc2)CC1 | inconclusive [inhibitor, single point] | –
O=C(c1ccc2c(c1)OCO2)N1CCN(c2ccc(C(F)(F)F)cn2)CC1 | inconclusive [inhibitor, single point] | –
Cc1ccc(S(=O)(=O)c2nc(-c3ccco3)oc2N2CCC(C)CC2)cc1 | inconclusive [inhibitor, single point] | –
COc1cc(OC)nc(Nc2nc(C(N)Cc3ccc(Cl)cc3)cs2)n1 (configuration not stated) | active: 23.1 µM | –
O=C(Nc1cc(C(F)(F)F)ccc1Cl)c1ccc2c(c1)CCN2S(=O)(=O)c1ccccc1 | active: 18.4 µM | –
CCN1CCCC1CNC(=O)Cn1ncc2c(=O)oc3ccc(C)cc3c21 (configuration not stated) | – | inactive: -6.11%
COc1cccc(NCc2cc(=O)oc3cc(C)c(O)cc23)c1 | inconclusive [inhibitor, partial curve] | –
COc1ccc(S(=O)(=O)N2CCCCCC2)cc1C(=O)N(C)Cc1ccc(F)cc1 | inconclusive [inhibitor, single point] | –
CCOc1ccc(-c2nc(S(=O)(=O)c3ccccc3)c(N3CCC(C(N)=O)CC3)o2)cc1 | – | inactive: 13.4%
Cc1c(-c2nc(N)nc(Nc3ccc(F)cc3)n2)oc2ccccc12 | inconclusive [inhibitor, single point] | –
COc1ccc(-c2nnc(SCC(=O)/C(C#N)=C(\C)N)o2)cc1 | inconclusive [inhibitor, partial curve, poor fit] | –
CCc1ccccc1NC(=O)/C(=C/c1ccco1)c1ccccc1 | inconclusive [inhibitor, single point] | –
CCn1cc(C2=NOC(C(=O)Nc3c(C)nn(Cc4ccc(F)cc4)c3C)C2)c(C)n1 (configuration not stated) | inconclusive [inhibitor, single point] | –
Cc1cc(=O)n2nc(N3CCCC(C(=O)NCc4cccc(Cl)c4)C3)sc2n1 (configuration not stated) | – | inactive: -1.83%
CN1CCC(=O)N(CCOc2ccccc2)CC1 | – | inconclusive: -22.8% [inhibitor]
Nc1c(-c2cccs2)cnc2c(-c3ccc(F)cc3)cnn12 | inconclusive [inhibitor, partial curve] | –
COc1ccc(C2c3ccc4ccccc4c3Oc3ncn(CCN4CCOCC4)c(=N)c32)cc1 (configuration not stated) | active: 23.1 µM | –
CCC(C)(C)C(=O)O[C@H]1C[C@@H](C)C=C2C=C[C@H](C)[C@H](CC[C@@H]3C[C@@H](O)CC(=O)O3)[C@H]21 | – | inactive: 3.06% [at 21.1 µM]

SMILES | Potency | activity change, negative = growth inhibition
COc1ccc(-c2nn3c(-c4cc(-c5ccccc5)n[nH]4)nnc3s2)cc1OC | active: 2.82 µM | –
COc1cccc(CN(C)CC(=O)NCc2ccc(F)cc2)c1OC | – | inactive: -23.2%
COc1ccc(Cl)cc1NC(=O)CNC(c1ccccc1)c1ccccc1 | inconclusive [inhibitor, single point] | –
COc1ccc(-c2nc(NC(=O)c3c(C)noc3C)sc2C)cc1 | active: 10.3 µM | –
CN(C)c1ccc(N=Nc2ccccc2C(=O)O)cc1 | inconclusive [inhibitor, single point] | –
COc1cc(C)ccc1OCCCCOc1ccccc1C(C)=O | active: 1.84 µM | –
Cc1ccc(-c2cc(C(=O)N/N=C/c3ccc([N+](=O)[O-])o3)c3ccccc3n2)o1 | active: 18.4 µM | –
COc1ccc(C2c3ccc4ccccc4c3Oc3ncn(CCCO)c(=N)c32)cc1OC (configuration not stated) | inconclusive [inhibitor, partial curve, poor fit] | –
COc1ccc(CCNC(=O)COc2cccc3c2OC(C)(C)C3)cc1OC | inconclusive [inhibitor, single point] | –
COc1cc(C2NC(=O)NC(C)=C2C(C)=O)ccc1O (configuration not stated) | – | inactive: 11%
Cc1cccn2c(=O)c(/C=C(\C#N)C(N)=O)c(N3CCN(c4ccccc4)CC3)nc12 | inconclusive [inhibitor, single point] | –
CC(=O)c1c(C)oc2ccc(NS(=O)(=O)c3ccc(C(C)C)cc3)cc12 | active: 5.8 µM | –
COc1ccc(N2CCN(C(=O)c3ccc4c(c3)N(Cc3cc(C)ccc3C)C(=O)c3ccccc3S4=O)CC2)cc1 (configuration not stated) | active: 14.6 µM | –
Cc1cn2c(=O)cc(COc3cccc(NC(=O)c4ccccc4Cl)c3)nc2s1 | inconclusive [inhibitor, partial curve] | –
O=S(=O)(c1ccccc1)N1N=C(c2ccc(O)cc2)CC1c1ccco1 (configuration not stated) | active: 8.2 µM | –
CCCC(O)(c1ccc(Cl)cc1)C(CN1CCOCC1)c1ccccc1 (configuration not stated) | inconclusive [inhibitor, single point] | –
O=C(NNS(=O)(=O)c1ccccc1)c1ccccc1-n1cccc1 | – | inactive: -4.32%
O=C(NCC(c1ccco1)N1CCN(c2ccc(F)cc2)CC1)C(=O)NC1CCCCC1 (configuration not stated) | inconclusive [inhibitor, single point] | –
COc1ccc(C(O)c2ncc(-c3ccccc3C)[nH]2)cc1F (configuration not stated) | inconclusive [inhibitor, single point] | –
Cc1ccccc1C(=O)Nc1cccc(-c2cn3cccnc3n2)c1 | inconclusive [inhibitor, single point] | –
COCC(C)NC(=O)CSc1nc2ccccc2c(=O)n1CCc1ccc(S(N)(=O)=O)cc1 (configuration not stated) | – | inactive: -29.3%
O=c1c2sccc2nc(SCc2cc(=O)n3ccccc3n2)n1-c1ccc(Br)cc1 | inconclusive [inhibitor, single point] | –
Cn1cc(S(=O)(=O)CC(=O)N2CCc3ccccc32)c2ccccc21 | – | inactive: -15.9%
Cc1cc2nc3c(c(=O)n2[nH]1)CCCC3 | inconclusive [inhibitor, partial curve, poor fit] | –
